Experimental data: paper PMC12040169 (PLOS Biology, 2025)
The other results are listed elsewhere or left out.

What follows are compounds tested on T1, C. trachomatis L2/434/Bu expressing GFP (CTL2-GFP). Settings: total inclusion area; 28.5 h, 10 µM; inhibitor.
T1 construct: L2/434/Bu GFP intracellular growth in HeLa cells
Set-up: species or system HeLa; C. trachomatis total inclusion area by high-content imaging, normalised to DMSO
In short: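 Imaging read-out: GFP inclusions and Hoechst nuclei captured by high-content imaging after fixation. Inclusion area/number = chlamydial growth; nuclei count = host cell viability. MIC calculated per earlier method.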

Compound	% of control remaining
COc1cc2c(cc1-c1cn(CCc3n[nH]c(=O)[nH]3)nn1)CCC2 [CBK307112]	73.0145
Cc1cc(C)nc(NCc2cnn(C)c2C)n1 [CBK306276]	31.0521
O=C(O)c1ccc(NS(=O)(=O)c2ccccc2)cc1O [CBK023181]	89.5024
Cc1cccc2c(C(=O)OCC(=O)c3ccc([N+](=O)[O-])cc3)cc(-c3ccc(Cl)cc3)nc12 [CBK264088]	107.337
Cc1ccc(C2C=C(c3ccccc3)Nc3nc(N4C(=O)CCC4=O)nn32)cc1 (stereo not drawn) [CBK266197]	105.805
CN1CCC(C(=O)N2CCN(c3ccccc3)CC2)CC1 [CBK200211]	95.5332
COc1ccc(Cl)cc1N1CCN(Cc2ccc3ccccc3c2)CC1 [CBK126414]	91.4809
Cc1nc2cc(OCc3ccc(-c4nccnc4-c4nnn[nH]4)cc3)ccc2s1 [CBK050820]	94.1375
N#CCCN(C(=O)NCc1cccc(C(F)(F)F)c1)C1CCCCC1 [CBK156350]	94.4033
CN(C)c1ccccc1-c1cc(NC2CCCCC2)ncn1 [CBK037041]	113.373
O=C(NCc1ccc(F)cc1)c1cc(Br)cnc1N1CCOCC1 [CBK076246]	116.569
Cc1cc(C(=O)O)c(NC(=O)c2cccc(Cl)c2)s1 [CBK126813]	92.4381
O=C(Nc1ccc2c(c1)OCCO2)N1CCCCC1CO (stereo not drawn) [CBK156178]	95.4434
Nc1ccc(Oc2ccc(-n3c(=O)c4cc5c(=O)n(-c6ccc(Oc7ccc(N)cc7)cc6)c(=O)c5cc4c3=O)cc2)cc1 [CBK261489]	116.05
CC(=O)NCC(=O)N1CC[C@@H]2NC(=O)CNC(=O)C3(CCCC[C@H]2C1)CCN(C(C)=O)CC3 [CBK292014]	107.534
COC(=O)C1CC(O)CN1S(=O)(=O)c1cccs1 (stereo not drawn) [CBK086668]	73.2206
CC(=O)N(C)c1ccc(NS(=O)(=O)c2cc(C)c(Cl)cc2C)cc1 [CBK045298]	61.1168
Clc1ccc(CN2CCC(Oc3nccnc3OCCN3CCOCC3)CC2)cc1 [CBK082918T]	75.6578
COc1cc(/C=N/NC(=O)CCn2c3ccc(Cl)cc3c3cc(Cl)ccc32)ccc1O [CBK262351]	98.9349
CC(=O)N1CCN(C(=O)C[C@@H]2C[C@@H](C(C)C)[C@H](CNC(=O)c3cccnc3)C=C2C)CC1 [CBK289046]	98.5856

Compound	% of control remaining
Cn1ccc(C(=O)N2CCOC(c3nc(C(C)(C)C)n[nH]3)C2)cc1=O (stereo not drawn) [CBK305201]	28.8304
COc1cc(-c2nccnc2NCCc2c[nH]c3ccccc23)cc(OC)c1OC [CBK038015]	165.151
COc1ccc(CCNC(=O)[C@@H]2Cc3c([nH]c4ccccc34)[C@]3(CCN(Cc4ccccc4)C3)N2)cc1OC [CBK062620]	77.3489
Cn1ncc2c(=O)n(Cc3noc(-c4ccco4)n3)cnc21 [CBK305053]	80.2402
COc1ccc(C(C)C)cc1-c1cncc(N2CCC(C(=O)O)CC2)n1 [CBK037900]	79.247
O=C(CCc1nc(=O)c2c3c(sc2[nH]1)CCC3)N1CCCCCC1 [CBK306388]	71.0916
COCC(C)NC(=O)C1CCCN(S(=O)(=O)c2ccc(OC)c(C)c2)C1 (stereo not drawn) [CBK270242]	77.4838
Cn1nccc1C(=O)C1CCN(C(=O)c2cccc(F)c2)CC1 [CBK284426]	87.3767
CC(C)(CO)Cn1c(=O)[nH]c2ncc(-c3ccc(F)c(Cl)c3)nc21 [CBK064737]	92.8293
N#Cc1c(Oc2cccc3cccnc23)cccc1C(F)(F)F [CBK002728]	93.854
O=C(CSC1c2ccccc2Oc2ccccc21)Nc1cccc(C(=O)O)c1 [CBK266566]	111.98
CS(=O)(=O)N1CCN(CC(O)Cn2c3ccc(Cl)cc3c3cc(Cl)ccc32)CC1 (stereo not drawn) [CBK264381]	85.878
CCOC(=O)N1CCC(NC(=O)c2ccc(Nc3cncc(-c4ccc(O)cc4)n3)cc2)CC1 [CBK115694]	94.1879
NC(=O)OC(c1ccccc1[N+](=O)[O-])P(=O)(c1ccccc1)c1ccccc1 (stereo not drawn) [CBK261383]	87.9248
Nc1nnc(SCC(=O)c2ccc3ccccc3c2)s1 [CBK266120]	0
CC(=O)Oc1ccc(-c2cccc(C(=O)NCC(=O)O)c2)cc1 [CBK263828]	63.7899
O=C(Nc1nccs1)c1cc(C2CCN(C(=O)CC3CCCCC3)C2)nc2ccccc12 (stereo not drawn) [CBK285586]	41.1158
CN(CC(=O)NCc1ccc2c(c1)OCO2)Cc1ccc(Br)s1 [CBK295185]	108.604
O=C1c2ccc(-c3nc4ccc(Cl)cc4c(=O)o3)cc2C(=O)N1Cc1cccnc1 [CBK268460]	112.589
